Test results taken from publication PMC4336329 (PLoS ONE, 2015).
Out of some 310,000 compounds screened, about 14,000 (4.5%) showed an effect of 50% or more. Effects have a minus sign here. Some of the results follow.

target: human ether-à-go-go-related gene (hERG) potassium channel (human, UniProt Q12809); experiment: primary screen, population patch clamp on CHO cells stably expressing hERG
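Further: peak tail current of the secondary pulse compared with the same well before compound.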

Chain of human ether-à-go-go-related gene (hERG) potassium channel (Q12809 whole entry, looked up): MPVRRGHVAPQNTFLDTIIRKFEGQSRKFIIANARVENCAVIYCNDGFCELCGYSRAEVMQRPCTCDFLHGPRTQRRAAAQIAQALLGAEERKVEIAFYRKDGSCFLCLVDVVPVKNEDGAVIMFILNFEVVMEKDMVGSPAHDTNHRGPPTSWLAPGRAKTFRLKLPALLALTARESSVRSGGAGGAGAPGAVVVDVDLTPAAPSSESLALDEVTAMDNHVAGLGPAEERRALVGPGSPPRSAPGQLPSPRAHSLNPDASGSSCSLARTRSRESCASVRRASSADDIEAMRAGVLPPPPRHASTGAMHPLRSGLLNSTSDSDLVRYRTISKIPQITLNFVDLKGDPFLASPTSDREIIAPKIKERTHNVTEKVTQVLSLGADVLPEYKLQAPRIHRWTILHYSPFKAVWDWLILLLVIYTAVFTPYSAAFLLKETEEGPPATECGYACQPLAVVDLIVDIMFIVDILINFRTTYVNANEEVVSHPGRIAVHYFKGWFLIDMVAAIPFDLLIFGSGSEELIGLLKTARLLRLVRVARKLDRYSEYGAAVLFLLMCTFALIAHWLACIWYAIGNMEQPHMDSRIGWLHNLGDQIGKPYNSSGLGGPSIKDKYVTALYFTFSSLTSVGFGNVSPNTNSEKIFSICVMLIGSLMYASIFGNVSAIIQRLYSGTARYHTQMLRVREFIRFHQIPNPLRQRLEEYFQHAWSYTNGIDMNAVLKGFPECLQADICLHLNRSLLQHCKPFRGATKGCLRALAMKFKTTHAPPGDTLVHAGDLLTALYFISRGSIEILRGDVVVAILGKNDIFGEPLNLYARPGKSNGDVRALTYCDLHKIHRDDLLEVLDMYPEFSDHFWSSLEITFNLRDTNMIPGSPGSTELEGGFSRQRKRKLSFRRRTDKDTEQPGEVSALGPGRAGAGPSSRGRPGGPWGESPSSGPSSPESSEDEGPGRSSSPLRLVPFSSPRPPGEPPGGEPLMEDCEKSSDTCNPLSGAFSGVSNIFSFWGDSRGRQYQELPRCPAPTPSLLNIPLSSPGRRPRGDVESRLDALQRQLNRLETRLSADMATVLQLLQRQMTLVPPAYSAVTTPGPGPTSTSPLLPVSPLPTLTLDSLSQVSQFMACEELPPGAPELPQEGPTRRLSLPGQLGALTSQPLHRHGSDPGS

SMILES | hERG current change (%, negative = inhibition) at 10uM [%]
CCOC(=O)c1ccc(NC(=O)c2cccnc2)cc1 | 16.6
C#CCNC(=O)C1=C[C@H](c2ccc(Br)cc2)[C@@H](CCCO)[C@H](OCC)O1 | -29.9
CNC(=O)c1c(O)c2cccc3c2n(c1=O)CCC3 | 12
CC1CCN(C(=O)Nc2cccc(NC(=O)N3CCC(C)CC3)c2)CC1 | -1.98
CC1(C(=O)O)C=CCN1C(=O)c1ccccc1 (centres unmarked) | 13.5
Cc1ccc(NC(=O)COC(=O)/C=C/c2c(C)nn(-c3ccc(F)cc3)c2Cl)cc1F | 0.00898
CCCCCCn1c(C(C)NC(=O)c2ccco2)nc2ccccc21 (centres unmarked) | -59.9
COc1ccc(-c2cn(-c3ccccc3)nc2C(=O)O)cc1OC | 5.07
O=C(Nc1ccc2c(c1)CCC2)c1cnccn1 | -7.21
C=CCNC(=O)CN1C2CCCC1CC(NC(=O)c1ccccc1C)C2 (centres unmarked) | -4.21
Cc1ccc2c3c1C1(C(=O)N3C(C)(C)CC2C)C(C#N)=C(N)Oc2cc(O)ccc21 (centres unmarked) | -3.98
COc1ccc(N2C(=O)c3ccccc3C2O)cc1 (centres unmarked) | 5.64
Cc1ccc(NC(=O)c2cc(=O)[nH]c3ccc(S(=O)(=O)N4CCOCC4)cc23)nc1 | 3.37
Cc1nc(-c2ccc(S(=O)(=O)NCc3cccnc3)s2)cs1 | 9.05
CCCS(=O)(=O)NCCc1cc2ccc(C)cc2[nH]c1=O | -9.47
OCC1(Cc2ccccc2)CCN(Cc2cccc(F)c2F)CC1 | -11.3
CCCC(C)NC(=O)COc1ccc(S(=O)(=O)N2CCCC2)cc1 (centres unmarked) | 10.6
CCOC(=O)C1CCN(c2nnc(N3CCCC3=O)s2)CC1 | 16.8
CC(=O)Oc1ccc(/C=N\NC(=O)c2cc3c(ccc4ccccc43)o2)cc1 | 10.6
Cn1c(CS(=O)Cc2c(Cl)cccc2Cl)nnc1SCc1ccc(Cl)cc1 (centres unmarked) | -56.2
CC(C)(C)NC(=O)c1cccc(NC(=O)CSc2ccc(Cl)cc2)c1 | -35.1
COc1ccc2nc(SCC(=O)NCc3ccc4c(c3)OCO4)[nH]c2c1 | -12.7
Cl.O=C(CCl)N1CCN(CC(=O)N2CCCC2)CC1 | 12.9

SMILES | hERG current change (%, negative = inhibition) at 10uM [%]
Cc1ccc(-c2c(C(=O)N/N=C/c3cccnc3)nnn2-c2nonc2N)cc1 | 8.65
CCCN(CCC)C(=S)NC(=O)c1ccc(Cl)cc1Cl | 9.72
Cc1cn(S(=O)(=O)c2ccc(Br)cc2)cn1 | -5.63
COc1ccccc1NC(=O)Nc1nnc(-c2ccco2)s1 | 24.6
Cc1ccc(C(=O)OCC(=O)Nc2ccccc2N2CCOCC2)cc1 | -6.35
COc1cccc(-c2nc(C(N)=O)c3[nH]c(=O)n(-c4ccccc4)c3n2)c1OC | -14.1
CCn1cc(C(=O)N(CCC(C)C)c2c(N)n(Cc3ccccc3)c(=O)[nH]c2=O)c(=O)c2ccc(C)nc21 | 3.64
COc1ccc(CCNC(=O)C2CC(=O)N(C3CCCC3)C2)cc1OC (centres unmarked) | 3.07
CCc1ccc(N(C(=O)c2ccco2)C(C(=O)NC2CCCC2)c2ccco2)cc1 (centres unmarked) | 13.3
O=c1cc(N2CCCCC2)c(-c2ccccc2)nn1Cc1ccc(Cl)cc1Cl | -1.2
Cn1c(=O)c2c(nc(NCCO)n2CCc2ccccc2)n(C)c1=O | 5.17
CC1(C)N=C(c2ccccc2)[C@@H]2C(c3ccc([N+](=O)[O-])cc3)N21 (some centres unmarked) | -31.6
Cc1cc(NC(=O)c2ccccc2)ncc1NC(=O)c1cccs1 | 10.5
COc1ccc(/C=N/NC(=O)c2cccc(Br)c2)cc1CN1CCOCC1 | -82.4
O=C(COC(=O)c1cc(Br)ccc1O)NNC(=O)c1ccc(Cl)cc1 | 12.7
O=C(/C=C/c1cccc2ccccc12)NCCC1=CCCCC1 | 1.49
COc1ccc(NC(=O)c2ccc(C)o2)c([N+](=O)[O-])c1 | 6.33
COCCCN1C(=O)C(=O)/C(=C(/O)c2ccc(OC(C)C)cc2)C1c1ccncc1 (centres unmarked) | 15
NC(=O)CSc1nnc(NC(=O)C2CC(=O)N(c3ccc(F)cc3)C2)s1 (centres unmarked) | 26.1
O=C(Nc1ccccc1C(=O)O)c1ccc(Br)c(S(=O)(=O)NCc2ccccc2)c1 | 27.2
CCc1nnc(NS(=O)(=O)c2ccc(NC(=S)NC(=O)c3ccc(OC)cc3)cc2)s1 | -6.62
CCOCCCNc1nc(-c2ccccc2)nc2ccccc12.Cl | -27.5
CSc1nc(-c2ccccc2)nc(N)c1C(C)=O | 4.13

SMILES | hERG current change (%, negative = inhibition) at 10uM [%]
COc1ccc(/C=N/Nc2ccc(C(=O)O)cc2)cc1OC | 13.9
COc1cc2c3c(c1OC)C1(C=CC(=O)C=C1)CC3N(C(C)=O)CC2 (centres unmarked) | -1.44
COC(=O)c1cc2c(ccn2-c2ccc(F)cc2)n1CC(=O)C(C)(C)C | 14.3
CC1CCC2(CC1)NC(=O)N(CC(=O)Nc1cccc(S(=O)(=O)N3CCCC3)c1)C2=O (centres unmarked) | 2.06
S=C(NCc1ccccc1)Nc1ccc(Oc2ccccc2)cc1 | 8.85
COc1cc(OC)c(C2CC(=O)N3CN(c4ccccc4)CSC3=C2C#N)cc1OC (centres unmarked) | 15
COc1ccccc1NC(=O)C(=O)Nc1ccccn1 | -2.36
Cc1cc(C)c(C(=O)N2CCCC(CNS(=O)(=O)c3cccs3)C2)o1 (centres unmarked) | 3.03
CC(CC(=O)Nc1cccc(S(=O)(=O)N2CCCCC2)c1)c1ccccc1 (centres unmarked) | -13.9
Cc1ccccc1C(=O)Nc1nnc(SCC(=O)NCc2ccco2)s1 | 14.8
COc1cc2c(cc1O)C[C@H]1NCCc3cc4c(c-2c31)OCO4 | -46.6
NC(=O)c1ccsc1NC(=O)COC(=O)C1CC2CCCC(C1)C2=O (centres unmarked) | 25
Cc1cc(C(=O)C(=O)N(C)C)c(C)n1-c1ccc(Cl)cc1 | 2.27
O=C(CSCc1c(F)cccc1Cl)NCCc1ccccc1 | 2.98
Cc1ccc(C)c(OCCC(=O)N2CCN(S(=O)(=O)c3cc(F)ccc3F)CC2)c1 | -18
Cc1c(C)n(CCC(=O)O)c2ccccc12 | 27.2
O=c1c2ccccc2nc(/C=C/c2ccccc2)n1CCCO | -8.23
CCCCn1c(SCC(=O)Nc2ccc3c(c2)OCO3)nc2c1c(=O)n(C)c(=O)n2C | -17.2
CCn1c(SCC(=O)N/N=C/C=C/c2ccco2)nc2ccccc21 | -39.1
CCCCN1CC(=O)N2[C@H](c3ccc(Cl)cc3)[C@@H]3C(=O)N(CC)C(=O)[C@@H]3[C@]2(C)C1=O | -11.1
O=C(O)c1cn(Cc2cccnc2)c(=O)c2ccccc12 | 13.5
O=C(O)CC(NC(=O)Cc1ccccc1)c1ccccc1 (centres unmarked) | 11.1
Cc1ccc(S(=O)(=O)NC2=NCN(C)CN2)cc1[N+](=O)[O-] | -13.3

SMILES | hERG current change (%, negative = inhibition) at 10uM [%]
CC(=NCCc1ccccc1)C1=C(O)CCC1=O | 3.34
O=C(CS(=O)CC(=O)N(CC(=O)NC1CCCC1)c1ccc2c(c1)OCCO2)Nc1ccc(F)cc1 (centres unmarked) | -10.6
C=CCNC(=S)NN=C1CCCCCCC1 | 10.6
Cc1ccc(-c2csc(NC(=O)CN3CCOCC3)n2)cc1C | -3.81
COC(=O)c1ccc(NC(=O)CCn2cccc2)cc1 | 4.38
COC(=O)C1=C(C)N(Cc2ccccc2)C(=O)N[C@H]1c1cccc(C(F)(F)F)c1 | -8.04
Cc1[nH]c(C)c(S(=O)(=O)N2c3ccccc3CC2C)c1C(=O)N1CCCCC1 (centres unmarked) | 2.21
CCOc1ccc(-c2cc(CCCC(=O)NCc3ccc(C)cc3)no2)cc1 | 14.5
CC(=O)N1CCCc2cc(S(=O)(=O)N3CCCC(C(=O)Nc4ccc(C)cc4C)C3)ccc21 (centres unmarked) | 13.6
Cc1ccc(N2C(=O)CC(Sc3ccccc3C(=O)O)C2=O)cc1 (centres unmarked) | 0.908
O=C(COC(=O)c1cc([N+](=O)[O-])ccc1Cl)NCCc1ccccc1 | -8.52
N#Cc1c(-c2ccc(Cl)cc2)ccnc1N1CCOCC1 | 3.33
O=C(Nc1ccc(Cl)cc1)O/N=C(\c1ccccc1)c1ccccn1 | 1.65
CCOC(=O)c1sc2nc(C)c3c(c2c1N)CC(C)(C)OC3 | 13.4
CC1=CC(C2CC(=O)N(c3ccc(C)cc3)C2=O)CC2C(=O)N(c3ccc(C)cc3)C(=O)C12 (centres unmarked) | -6.41
COc1ccc(OCC(=O)Nc2ccc(N3CCOCC3)cc2)c([N+](=O)[O-])c1 | 12.1
Cc1ccc(C(=O)NCCc2n[nH]c(=S)n2C)cc1 | 11.5
Cc1nc(-c2ccccc2)sc1C(=O)Nc1ccccc1F | 14.1
O=C(Nc1ccc2nc(-c3ccco3)[nH]c2c1)c1ccco1 | -5.43
Cc1cc(C(=O)NCc2ccc(C(=O)O)o2)c(C)o1 | 8.35
